Laboratory results taken from the supplement of paper PMC8948288.
Shown are siRNA guide strands that differ only in the seed, positions 2 to 7.

Assays:
GL261 = experiment: cell viability relative to siNT1 (ATP content); H4 human neuroglioma and GL261 mouse glioma; higher = less toxic; details: siRNA concentration 25 nM; 96 h; mouse
H4 = experiment: as above; details: siRNA concentration 10 nM; 96 h; human
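Note: cells reverse transfected with siRNA duplexes via lipid reagent, ATP read by luminescence, triplicate wells, values scaled to mean viability with non-targeting control siNT1.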

Sequence	cell viability (GL261)	cell viability (H4)
UCUCGCAACAUGUAAACCA	28.4%	72.5%
UCUCGCCACAUGUAAACCA	23.1%	75.1%
UCUCGCGACAUGUAAACCA	56.3%	82.3%
UCUCGCUACAUGUAAACCA	30.2%	99.1%
UCUCGGAACAUGUAAACCA	33.4%	80.5%
UCUCGGCACAUGUAAACCA	28.8%	36.4%
UCUCGGGACAUGUAAACCA	32.5%	90.3%
UCUCGGUACAUGUAAACCA	41.6%	75.2%
UCUCGUAACAUGUAAACCA	42.6%	73.9%
UCUCGUCACAUGUAAACCA	34%	79.4%
UCUCGUGACAUGUAAACCA	66.9%	84.1%
UCUCGUUACAUGUAAACCA	48.9%	90.1%
UCUCUAAACAUGUAAACCA	40.1%	79.7%
UCUCUACACAUGUAAACCA	47.2%	78.9%
UCUCUAGACAUGUAAACCA	44.9%	105%
UCUCUAUACAUGUAAACCA	45.2%	89.2%
UCUCUCAACAUGUAAACCA	27.5%	111%
UCUCUCCACAUGUAAACCA	9.65%	50%
UCUCUCGACAUGUAAACCA	35.7%	79%
UCUCUCUACAUGUAAACCA	24.2%	79.4%
UCUCUGAACAUGUAAACCA	33.9%	95.6%
UCUCUGCACAUGUAAACCA	13%	31.3%
UCUCUGGACAUGUAAACCA	28.3%	52.2%
UCUCUGUACAUGUAAACCA	19.1%	62.6%

Sequence	cell viability (GL261)	cell viability (H4)
UCUCUUAACAUGUAAACCA	39.1%	95.1%
UCUCUUCACAUGUAAACCA	13.4%	41.5%
UCUCUUGACAUGUAAACCA	39.6%	108%
UCUCUUUACAUGUAAACCA	32.8%	85.6%
UCUGAAAACAUGUAAACCA	59.5%	96.6%
UCUGAACACAUGUAAACCA	59.8%	81.8%
UCUGAAGACAUGUAAACCA	54.8%	76%
UCUGAAUACAUGUAAACCA	72%	80.3%
UCUGACAACAUGUAAACCA	44.3%	75.8%
UCUGACCACAUGUAAACCA	30.8%	45.7%
UCUGACGACAUGUAAACCA	45.2%	87.4%
UCUGACUACAUGUAAACCA	62.6%	89.8%
UCUGAGAACAUGUAAACCA	58%	83.8%
UCUGAGCACAUGUAAACCA	29.3%	45%
UCUGAGGACAUGUAAACCA	53.1%	75%
UCUGAGUACAUGUAAACCA	48.8%	96.1%
UCUGAUAACAUGUAAACCA	45.3%	88.2%
UCUGAUCACAUGUAAACCA	76.2%	86.5%
UCUGAUGACAUGUAAACCA	46.3%	108%
UCUGAUUACAUGUAAACCA	42.5%	105%
UCUGCAAACAUGUAAACCA	55.4%	92.7%
UCUGCACACAUGUAAACCA	25.9%	59%
UCUGCAGACAUGUAAACCA	71.4%	77.6%
UCUGCAUACAUGUAAACCA	39.5%	108%

Sequence	cell viability (GL261)	cell viability (H4)
UCUGCCAACAUGUAAACCA	62.5%	79.8%
UCUGCCCACAUGUAAACCA	12.8%	54.1%
UCUGCCGACAUGUAAACCA	43.8%	91.8%
UCUGCCUACAUGUAAACCA	37.5%	59.2%
UCUGCGAACAUGUAAACCA	54.7%	79.8%
UCUGCGCACAUGUAAACCA	18.5%	86.1%
UCUGCGGACAUGUAAACCA	39.7%	87%
UCUGCGUACAUGUAAACCA	45.7%	112%
UCUGCUAACAUGUAAACCA	56.2%	78.7%
UCUGCUCACAUGUAAACCA	29.5%	78.4%
UCUGCUGACAUGUAAACCA	42.9%	75.5%
UCUGCUUACAUGUAAACCA	46.6%	96.2%
UCUGGAAACAUGUAAACCA	44.1%	78.3%
UCUGGACACAUGUAAACCA	21.9%	42.5%
UCUGGAGACAUGUAAACCA	34%	93.8%
UCUGGAUACAUGUAAACCA	32.2%	65.9%
UCUGGCAACAUGUAAACCA	27.9%	93.1%
UCUGGCCACAUGUAAACCA	60.3%	23.5%
UCUGGCGACAUGUAAACCA	32.9%	71.3%
UCUGGCUACAUGUAAACCA	24.2%	38.2%
UCUGGGAACAUGUAAACCA	15.6%	33.8%
UCUGGGCACAUGUAAACCA	14.2%	2.37%
UCUGGGGACAUGUAAACCA	17.6%	23.6%
UCUGGGUACAUGUAAACCA	33.6%	14.4%

Sequence	cell viability (GL261)	cell viability (H4)
UCUGGUAACAUGUAAACCA	80.2%	80.2%
UCUGGUCACAUGUAAACCA	32.6%	42.3%
UCUGGUGACAUGUAAACCA	56.2%	76%
UCUGGUUACAUGUAAACCA	56.4%	85.1%
UCUGUAAACAUGUAAACCA	60.7%	110%
UCUGUACACAUGUAAACCA	34.6%	85.6%
UCUGUAGACAUGUAAACCA	65.6%	91.2%
UCUGUAUACAUGUAAACCA	46.9%	94.2%
UCUGUCAACAUGUAAACCA	66.7%	79.8%
UCUGUCCACAUGUAAACCA	32.6%	52.4%
UCUGUCGACAUGUAAACCA	38.7%	94%
UCUGUCUACAUGUAAACCA	44.4%	90.3%
UCUGUGAACAUGUAAACCA	41.7%	93.6%
UCUGUGCACAUGUAAACCA	21.4%	57.3%
UCUGUGGACAUGUAAACCA	35.7%	44.2%
UCUGUGUACAUGUAAACCA	20.4%	53.8%
UCUGUUAACAUGUAAACCA	33.5%	72.4%
UCUGUUCACAUGUAAACCA	34.8%	65.2%
UCUGUUGACAUGUAAACCA	45.8%	90.7%
UCUGUUUACAUGUAAACCA	39.8%	88.5%
UCUUAAAACAUGUAAACCA	83.4%	100%
UCUUAACACAUGUAAACCA	60.5%	87.2%
UCUUAAGACAUGUAAACCA	56.7%	95.5%
UCUUAAUACAUGUAAACCA	57.6%	93.5%

Sequence	cell viability (GL261)	cell viability (H4)
UCUUACAACAUGUAAACCA	50.2%	90.2%
UCUUACCACAUGUAAACCA	44.9%	51.9%
UCUUACGACAUGUAAACCA	52.6%	89.6%
UCUUACUACAUGUAAACCA	75.6%	97.4%
UCUUAGAACAUGUAAACCA	49.9%	101%
UCUUAGCACAUGUAAACCA	36.8%	74.3%
UCUUAGGACAUGUAAACCA	47.7%	79.8%
UCUUAGUACAUGUAAACCA	37.6%	87.5%
UCUUAUAACAUGUAAACCA	41.5%	88.6%
UCUUAUCACAUGUAAACCA	59.3%	88%
UCUUAUGACAUGUAAACCA	38.9%	114%
UCUUAUUACAUGUAAACCA	60.2%	103%
UCUUCAAACAUGUAAACCA	33.4%	113%
UCUUCACACAUGUAAACCA	42.7%	80.9%
UCUUCAGACAUGUAAACCA	48.6%	84.4%
UCUUCAUACAUGUAAACCA	35.5%	86.7%
UCUUCCAACAUGUAAACCA	48%	77.5%
UCUUCCCACAUGUAAACCA	44.3%	51.9%
UCUUCCGACAUGUAAACCA	52.1%	89.5%
UCUUCCUACAUGUAAACCA	21.8%	74.5%
UCUUCGAACAUGUAAACCA	44.4%	96.1%
UCUUCGCACAUGUAAACCA	18.2%	64.5%
